The record followed here is article PMC10668032.

Some of the results follow. At the low end of the ranking, values are background and their order means little.

For this assay, the target named is SIX1-Q177R homeodomain (UniProt Q15475). Description: universal protein binding microarray. The following applies: Universal all-10-mer PBM (8x60K, AMADID 030236), 300 nM GST-tagged protein, Alexa Fluor 488 anti-GST; buffer, salt, pH and temperature not stated; high values mean tight binding; most listed sequences are background and not binding sites; double strand, one strand shown.
With ACACCAGA, the binding signal stood at 0.472 E-score.

Consider AGTCATGG, for which the binding signal is -0.0684 E-score.

CCAGGTGC: the binding signal stood at 0.128 E-score.

For AGAAGTGC, the binding signal was determined as 0.0438 E-score.

For CCGCGAGA, the binding signal was -0.113 E-score.

In the case of CCGAAGTC, the binding signal is -0.0815 E-score.

Regarding AAGGCTGG, the binding signal was -0.168 E-score.

Turning to TACACCGA, the binding signal is 0.485 E-score.

Take GAGCGGCA: the binding signal was -0.108 E-score.

On to ATTACAGG, for which the binding signal was -0.157 E-score.

For TTATAGAA, the binding signal is -0.113 E-score.

With ACCCATCG, the binding signal was determined as 0.179 E-score.

On to GGATGCTA, for which the binding signal is -0.15 E-score.

Take ACGGACTC: the binding signal is -0.0567 E-score.

As for ACCTCGGA, the binding signal turned out to be 0.175 E-score.

Regarding AAGGGGCG, the binding signal is 0.0295 E-score.

Turning to ACGGCCCT, the binding signal was -0.111 E-score.

Take CCAGCTCA: the binding signal is -0.119 E-score.

Consider AGTGTGTC, for which the binding signal came to 0.283 E-score.

Regarding ACATAAGT, the binding signal is -0.075 E-score.

GAGTGTCA: the binding signal stood at 0.45 E-score.

As to AGTGCAAG, the binding signal is -0.06 E-score.

Regarding ACACAGGA, the binding signal is 0.192 E-score.

TGGTGCAA: the binding signal came out at 0.169 E-score.

Take CTTTCCAA: the binding signal is -0.104 E-score.

For GAGGTCAC, the binding signal is -0.0638 E-score.

As to AGACAACT, the binding signal worked out at 0.0848 E-score.

As to AACACGCG, the binding signal is 0.36 E-score.

GTGGAACA: the binding signal came out at 0.0324 E-score.

For CTGCCCCC, the binding signal came out at 0.00977 E-score.

As to AAGCAGGG, the binding signal came out at 0.00513 E-score.

As to GCCCTATA, the binding signal is -0.106 E-score.

As to CTTTTTTC, the binding signal is -0.266 E-score.

As to CGCGGTCC, the binding signal is -0.123 E-score.

In the case of GTAAATAA, the binding signal stood at 0.0337 E-score.

With GTTGTAAA, the binding signal is -0.17 E-score.

With AGTCGCTA, the binding signal amounted to 0.109 E-score.

For the sequence CCCGCATA, the binding signal amounted to 0.135 E-score.

Regarding CGGACCGA, the binding signal was -0.0483 E-score.

Consider GATGCCCC, for which the binding signal is -0.0879 E-score.

For GCCCGCTA, the binding signal is -0.279 E-score.

With AACTTACC, the binding signal is -0.0993 E-score.

Take TTAGAGAA: the binding signal is -0.114 E-score.

For the sequence CTCTCTGC, the binding signal was -0.109 E-score.

As for CGGTCGCA, the binding signal is -0.0812 E-score.

AGTTGATA: the binding signal is 0.024 E-score.

On to AATCCGTA, for which the binding signal is -0.146 E-score.

Regarding GTCTAGAA, the binding signal was -0.133 E-score.

Turning to ACAGGCGC, the binding signal is -0.13 E-score.

For TAGGACGA, the binding signal is -0.0699 E-score.

CAATGTAC: the binding signal is 0.0953 E-score.

With AAGTCATA, the binding signal is -0.208 E-score.

For CATCCATA, the binding signal is -0.111 E-score.

As to GAATAAAC, the binding signal worked out at 0.115 E-score.

For CGATGTCC, the binding signal was -0.182 E-score.

Turning to CCCGCGAC, the binding signal came out at 0.1 E-score.

Regarding CGAGTCGC, the binding signal came out at 0.0582 E-score.

With CGCCTACC, the binding signal is 0.0601 E-score.

With TCACAGCA, the binding signal is -0.0833 E-score.

With CTTAGATA, the binding signal was -0.234 E-score.

As to AGGCCGCA, the binding signal was -0.055 E-score.

For the sequence AATAAAAA, the binding signal is -0.0602 E-score.

In the case of ATTGATTG, the binding signal was -0.0291 E-score.

Turning to ACTCGACT, the binding signal is 0.131 E-score.

As to GTTATCAA, the binding signal was -0.11 E-score.

Take CTGTAAAG: the binding signal is -0.11 E-score.

In the case of AGCGGGTG, the binding signal was 0.333 E-score.

Take CCCATCTA: the binding signal is -0.14 E-score.

Regarding ACAGCGAC, the binding signal amounted to 0.109 E-score.

As to GGTGAACA, the binding signal was 0.106 E-score.

With CATGAGGA, the binding signal is -0.111 E-score.

Regarding CAGCGATA, the binding signal was -0.00628 E-score.

With ACGGTAAC, the binding signal is 0.108 E-score.

For CACAGTGG, the binding signal was 0.16 E-score.

In the case of CATGGAAG, the binding signal is -0.108 E-score.

For the sequence AAGCGGGA, the binding signal was -0.176 E-score.

For GAAATAGC, the binding signal was -0.203 E-score.

In the case of AACGAGTT, the binding signal was -0.107 E-score.

Consider ATGCTAAG, for which the binding signal is -0.304 E-score.

Regarding CGTAGGGC, the binding signal was -0.105 E-score.

In the case of GGGTCGAA, the binding signal came out at 0.182 E-score.

Consider GTTGCCAA, for which the binding signal is -0.117 E-score.

As to CCTGATAG, the binding signal was -0.153 E-score.

Take CGCTATAA: the binding signal is -0.279 E-score.

For the sequence CCGCTGCG, the binding signal was -0.166 E-score.

In the case of GAGTTGAC, the binding signal is -0.0347 E-score.

CATTACGA: the binding signal was -0.108 E-score.

With ATACCGGG, the binding signal is 0.213 E-score.

On to GCCTACGA, for which the binding signal is -0.0683 E-score.

For the sequence TCGAAGAA, the binding signal is -0.0854 E-score.

As for AGGGGCTA, the binding signal came out at 0.0301 E-score.

Take AACCAACG: the binding signal was determined as 0.0488 E-score.

For the sequence ACAGGTTG, the binding signal is -0.108 E-score.

Regarding AACTGATT, the binding signal is -0.13 E-score.

As for AATACCAG, the binding signal was determined as 0.0976 E-score.

CAGGCCAC: the binding signal was -0.197 E-score.

With CACACTAA, the binding signal was 0.204 E-score.

As for CCAAGCCA, the binding signal amounted to 0.0378 E-score.

For CAACGCTG, the binding signal was -0.171 E-score.

On to CCATTACG, for which the binding signal was -0.0272 E-score.

For the sequence CCACGCCA, the binding signal is -0.133 E-score.

As for GAGGCGTA, the binding signal was found to be 0.135 E-score.

For GGAGGTGA, the binding signal was -0.047 E-score.

With AATTCCTG, the binding signal is -0.127 E-score.

As to CGGTGGGC, the binding signal was -0.216 E-score.

Regarding CTCCGTGA, the binding signal was -0.0297 E-score.

As for GATGCAGA, the binding signal was -0.174 E-score.

ACGGAAAA: the binding signal was -0.259 E-score.

In the case of CCGCGTGA, the binding signal was -0.109 E-score.

As for AGCACCAG, the binding signal came out at 0.247 E-score.

With AAATGAAG, the binding signal was -0.105 E-score.

Regarding ACTTTGCT, the binding signal is -0.147 E-score.

In the case of ATCGGATC, the binding signal was determined as 0.105 E-score.

Take ATCAATTG: the binding signal is -0.136 E-score.

In the case of ACCACGCA, the binding signal is 0.24 E-score.

On to GCTCCGGA, for which the binding signal was 0.0233 E-score.

Take GTGAGGCA: the binding signal was -0.128 E-score.

For CTGGGAGC, the binding signal is 0.0579 E-score.

Consider CGGACTCA, for which the binding signal is -0.0505 E-score.

As for ACCTGGGA, the binding signal was determined as 0.186 E-score.

Take AGGGAGAC: the binding signal was 0.0532 E-score.

Turning to CCGTAGGC, the binding signal is -0.224 E-score.

Regarding AAAGCGGT, the binding signal is -0.0763 E-score.

AGGTGTCG: the binding signal amounted to 0.479 E-score.

For the sequence AAAGTGAA, the binding signal is -0.174 E-score.

As to CACTCGAG, the binding signal stood at 0.172 E-score.

As to AGTTCCAC, the binding signal is -0.159 E-score.

Take CCCTCTGA: the binding signal turned out to be 0.153 E-score.

For the sequence CGGGTTGA, the binding signal was found to be 0.0878 E-score.

As for CAGGTTTA, the binding signal was -0.00154 E-score.

For AGACGGCT, the binding signal was -0.103 E-score.

Regarding ATTCCCAC, the binding signal came to 0.0314 E-score.

On to ACAAGACA, for which the binding signal is 0.111 E-score.

Regarding TCCTCCAA, the binding signal was found to be 0.0978 E-score.

On to AACCCCGG, for which the binding signal was 0.265 E-score.

As for ATGGCGAC, the binding signal is -0.107 E-score.

In the case of CGTTCCTC, the binding signal is -0.096 E-score.

As to ATCAGGGC, the binding signal is -0.132 E-score.

Take GCACAGGA: the binding signal was 0.0617 E-score.

In the case of GCTTAGCA, the binding signal was -0.3 E-score.

On to CTACTTCA, for which the binding signal is -0.0371 E-score.

AGTAGTTA: the binding signal was 0.0062 E-score.

In the case of ACATGTAG, the binding signal turned out to be 0.013 E-score.

For CAAATCTA, the binding signal amounted to 0.046 E-score.

As for TGAGCGCA, the binding signal is -0.0968 E-score.

As to CAAACTTG, the binding signal is -0.217 E-score.

On to ACTGCTAA, for which the binding signal is -0.137 E-score.

For TCAGCCAA, the binding signal is -0.147 E-score.

Regarding CTTGAGAC, the binding signal is -0.0213 E-score.

As for AACCCCGC, the binding signal turned out to be 0.194 E-score.

Consider ATAACTGG, for which the binding signal was -0.142 E-score.

Turning to CGCCTAAA, the binding signal turned out to be 0.0746 E-score.

With CACGGGGA, the binding signal turned out to be 0.199 E-score.

As for CGCACTAG, the binding signal came to 0.0426 E-score.

Turning to TGTGTTAA, the binding signal worked out at 0.171 E-score.

Consider TGGAGCAA, for which the binding signal is -0.141 E-score.

On to CAAAGGAG, for which the binding signal is -0.181 E-score.

Take ACACCGTG: the binding signal came to 0.472 E-score.

Turning to GAGGAGCA, the binding signal was -0.264 E-score.

AGGGCCCC: the binding signal is -0.21 E-score.

In the case of CCCCCCAC, the binding signal worked out at 0.0982 E-score.

GAGCTGCA: the binding signal is -0.28 E-score.

ACGCGATG: the binding signal was found to be 0.0393 E-score.

On to TGAGTACA, for which the binding signal turned out to be 0.0496 E-score.

Regarding CCCGGCCA, the binding signal worked out at 0.124 E-score.

As to TATGTAAA, the binding signal is -0.136 E-score.

As to AGGCATTC, the binding signal is -0.095 E-score.

On to TGTCAGAA, for which the binding signal came to 0.183 E-score.

For the sequence CATTCCAA, the binding signal was -0.114 E-score.

As to CCCGGAGG, the binding signal was 0.121 E-score.

For the sequence AGGAGCTG, the binding signal was -0.0204 E-score.

Take CATTTACG: the binding signal stood at 0.0286 E-score.
